# Variants at the background level are over-represented here.
# B1: TPR 5TU (parent)
# chain: GGAUCUUCUCGAUCUAACAAAAAAGACAAAUCUGCCACAAAGCUUGAGAGCAUCUUCGGAUGCAGAGGCGGCAGCCUUCGGUGGCGCGAUAGCGCCAACGUUCUCAACUAUGACACGCAAAACGCGUGCUCCGUUGAAUGGAGUUUAUCAUG
# Variants of: B1
# Experiment: polymerase ribozyme fitness, log enrichment relative to wild type (log ratio); higher = more active; in vitro selection for triplet polymerase activity
# Outline: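 After PCR construction and transcription, each subunit's mutant library from a heterodimeric triplet polymerase ribozyme was annealed with a biotinylated primer, the partner subunit and triplets. Incubation was frozen, at −7 °C, and extended constructs were gel-excised, bound to streptavidin beads and amplified by RT-PCR, in one selection round done in triplicate. Fitness is the logarithm of a genotype's enrichment divided by that of the wild type, from inverse-variance-weighted replicate averages of Illumina-sequenced inputs and outputs. The base of the logarithm is 2, and genotypes needed ≥10 input reads and ≥1 read per output.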
row,Variant,polymerase ribozyme fitness (log ratio)
1,A22U C85A U90G A137G G143C,≤ -4.2
2,A22U G81A C85U G88A A91U,≤ -4.2
3,A22U G86C,-3.34
4,A22G C54U G58A G59A C103G,-1.91
5,A22C C69A G80C C85U A89U A142G,≤ -4.2
6,A22G C93U,-0.637
7,A22G A29U U77C C85G C95U C103U C114G C125U,≤ -4.2
8,A22G A39G U61A G88C A121C U146G,≤ -4.2
9,A22G G84A A91C C103G U104G,≤ -4.2
10,A23C A37C C96G U127G U139A U144C,≤ -4.2
11,A23C A52C C54U G62C C85G,≤ -4.2
12,A22U A49C,≤ -4.2
13,A22U A23G G50C G74C,≤ -4.2
14,A22U U55A A115C C123U U130G,-2.84
15,A22G A52C C75A A91C A115G C129U,≤ -4.2
16,A22G C85G A150G,-3.09
17,A22U C57U A60G C87G U90A G128A,≤ -4.2
18,A22U C76U A107G C116G,≤ -4.2
19,A22C U53A U56A A73G,-1.97
20,A22C G46A C51A,≤ -4.2
21,A22G G34A G50C G68A U101G G133U,≤ -4.2
22,A22U C27G A29C C51A A60G U61G C93G,≤ -4.2
23,A22G A39C U55A U77G G80C C85U C125G G141A,≤ -4.2
24,A23C C32A A41C A49G G50C G84A G117U U134A,≤ -4.2

row,Variant,polymerase ribozyme fitness (log ratio)
1,A22G G88A C96U,≤ -4.2
2,A22U A73C G92U A110G U111C G141C,≤ -4.2
3,A22G A49G U55G G67A C93G G100A G128U U135A A137G,≤ -4.2
4,A22U G83C,-1.73
5,A22G C76U C85A C87U G117A,≤ -4.2
6,A22U U55G A137G G140U,≤ -4.2
7,A22C C85A U104G,≤ -4.2
8,A22U A66C C87U,≤ -4.2
9,A22U A29U U56A G83A G152U,≤ -4.2
10,A22U C87U A89C U111A A115C,≤ -4.2
11,A22G U31C U44A C95G A150G,≤ -4.2
12,A22G G83A C105A,-3.83
13,A22G C27A G80U A91G C131G U139G,≤ -4.2
14,A22G C32U C93A A107C,≤ -4.2
15,A22U G46A A115G,-1.54
16,A22G A52C U56A C85A G128C A150G,≤ -4.2
17,A22G C51U U78G C95U A107G U146C,≤ -4.2
18,A22G C38A C54G U55A G92C C123U,≤ -4.2
19,A22C C35U A49U A66U C103G,≤ -4.2
20,A23C A115U,≤ -4.2
21,A22G U33G,-3.24
22,A22U G48A C85G A97U,≤ -4.2
23,A22C C36A C75A C76G G83C G117C G141U A150G,≤ -4.2
24,A23C A39U G80A,≤ -4.2

row,Variant,polymerase ribozyme fitness (log ratio)
1,A22G G34C A66U G94U G100C A110C G126A U139C,≤ -4.2
2,A22U G42U G86A A113C C116A,≤ -4.2
3,A22G C51A U56A G59C G86A C105G A115U G141C,≤ -4.2
4,A22U C87U C93U C95U C118U,≤ -4.2
5,A23C C32G C72U C96A A122G,≤ -4.2
6,A22U G25U G46A C85A C93A C125A,≤ -4.2
7,A22C U144G,0.903
8,A22U G48C C51U C116G G124A A150G,≤ -4.2
9,A22U C72U A91C U130A,≤ -4.2
10,A22U C35U C51A G58A C75A C96U G152A,≤ -4.2
11,A22U C38A G70C C76A C79G U148G G152U,≤ -4.2
12,A22G A29C U55G C75G G88C G126A A150C,≤ -4.2
13,A22U A39C A47C A52C G58C C76G A89U A91G C95G G124C,≤ -4.2
14,A22G U33C A39C G46C C79A G81A C87A C105U C114A A137G,≤ -4.2
15,A23C A24U C35U G50A C95U A137U,≤ -4.2
16,A22C G46C G83C,-3.01
17,A22U A49C C96U A110U G140A,≤ -4.2
18,A22U A26C U56A A60C C72G C87A C116G A147U,≤ -4.2
19,A22U G94C C95G C96A A122U,≤ -4.2
20,A22U A26C U45A G48U U82G C87G C129G,≤ -4.2
21,A22U U82A C96U,0.375
22,A22U A66C C85G,≤ -4.2
23,A22C C27U U44A A47C U82C C95U A142C,≤ -4.2
24,A23C C35A U45G C57U C93G U151C,≤ -4.2

row,Variant,polymerase ribozyme fitness (log ratio)
1,A22U A91U,≤ -4.2
2,A22U A30C G80C A120U,≤ -4.2
3,A22U G88C A147C,-4.19
4,A22U C57G G58A C114G,-2.5
5,A22C C35A G88C,≤ -4.2
6,A22G A24U C63G,2.39
7,A22G A29U U31A C85U U145A,≤ -4.2
8,A22G A40G A52C C75U C99A A107G C108U U134A,≤ -4.2
9,A23C C32U U33C,≤ -4.2
10,A22C C87G,≤ -4.2
11,A22G C85G G133A,≤ -4.2
12,A22C U61A G88A A107C A110C C123G G140A,≤ -4.2
13,A22G U45A A60G C79G G92A A115C,≤ -4.2
14,A23C A28U A40G C93G,≤ -4.2
15,A22U C99A,0.261
16,A22U C99U,-0.0944
17,A22G U31G C54U C96G A115G C123G A137C,≤ -4.2
18,A22C C38U G81U C87G U144A,≤ -4.2
19,A22U A30U C35G U53A C87U U102A C103U U144C,≤ -4.2
20,A22G C108U,-4.08
21,A22C G48U A52C U53A G58U A97U A98U,≤ -4.2
22,A23C A73U G83A C93U U145C,≤ -4.2
23,A22U A37G A41G G48C G94U,≤ -4.2
24,A23C A28C G46A U55A C96U,≤ -4.2

row,Variant,polymerase ribozyme fitness (log ratio)
1,A22G A66C C75A C76U U90G C93A U101G,≤ -4.2
2,A22U C32G U134C,≤ -4.2
3,A22U C35G C76G G92A C105U,≤ -4.2
4,A22U A29G A150G,≤ -4.2
5,A22U G48U U55A A60G C103G A121U U135C G143U A150C,≤ -4.2
6,A23C A49G C63U G86C G126C A147U,≤ -4.2
7,A22C U53A G83U C108G A137G U139A,≤ -4.2
8,A22U A28U U55A C93U,≤ -4.2
9,A23C A37C G143C,≤ -4.2
10,A22U A37U G133U G143C,≤ -4.2
11,A22U U33A G50A U61A G67A C87U A119U G124C,≤ -4.2
12,A22G A23C C51U G81A C93U C118G U134C A150C,≤ -4.2
13,A22U A41U A60U A106U,-4.16
14,A22C C85U G140A,≤ -4.2
15,A22C U53G G94A A119G,-1.81
16,A22G U130A,-1.59
17,A22G U33A A49C G68A C79G C85U,≤ -4.2
18,A22G G50U C51U C93G,≤ -4.2
19,A23C A30G A40G U45A C72A C79G U82A,≤ -4.2
20,A22G A37C U44A G84C C85U C96U A98G G136A C149G A150U,≤ -4.2
21,A22U A29U A41G U90G C93G C95U G140U,≤ -4.2
22,A23C A26U U33G C76A U101G U145G,≤ -4.2
23,A22G A106G A122C G124U,-0.81
24,A22U A23U C54G C87A,≤ -4.2

row,Variant,polymerase ribozyme fitness (log ratio)
1,A22U A30G U56A G86A C123U G136A,≤ -4.2
2,A22U C87U,0.455
3,A22G A66C G84A U148G,≤ -4.2
4,A23C A26G A37G G84U A137U,≤ -4.2
5,A22C U61G G65U C95U A121G G140A,≤ -4.2
6,A22U G34A C103A G126U,≤ -4.2
7,A23C C32U A64G G81A C87G C95U C96A A97G A138C G141U,≤ -4.2
8,A22U C27A C32A A41U C57A G84C A142G,≤ -4.2
9,A22U G92A C95A C105U,-3.63
10,A22G G58A A120G C123A C129G,-3.06
11,A23C A41G C57G,≤ -4.2
12,A22G A41C G50A C95U U101G,-1.78
13,A22G C36G G84A,≤ -4.2
14,A22U G42C G80A A91G C95G A98U,≤ -4.2
15,A23C A91U C99G G152A,≤ -4.2
16,A22U A28U C57U U77G C85G G92U,≤ -4.2
17,A22U C87G U90G A97U,≤ -4.2
18,A22G C132U,-0.512
19,A22G C132G,-3.69
20,A22U G59C G92A U104G C123U G133U,≤ -4.2
21,A23C A24U G50A G83A A98U G141C,≤ -4.2
22,A22U G25U G70C U139A,≤ -4.2
23,A22U A39U A40C A66C C105U,≤ -4.2
24,A22U A37G A49C G62U C75G C76A G81U C85G G128C,≤ -4.2

row,Variant,polymerase ribozyme fitness (log ratio)
1,A22G A39C G81U G92A C103A,≤ -4.2
2,A22U G34A G74U G94A A119C G143A,≤ -4.2
3,A22U A41C C43U C54U U77A U82A C87G C99G U146C,≤ -4.2
4,A22C G42C U53A C76U G88U G94U,≤ -4.2
5,A22U A37U G42C U55A C72G A115G C149U A150G,≤ -4.2
6,A22G C27U A30G A121G U139A,≤ -4.2
7,A23C A49U G83U U151C,≤ -4.2
8,A22U C63U G86U A107C U109C,≤ -4.2
9,A22C G34C U55G A91C G92U,≤ -4.2
10,A22U U55A G88A C103G A106C,≤ -4.2
11,A22G G124A,0.539
12,A22C G59C G83A A89C,-1.16
13,A22C U44A C87U C103U,≤ -4.2
14,A22U U90A A98G,≤ -4.2
15,A23C A37C U55A G65U G128U G143C U148A,≤ -4.2
16,A22U A29U C95U A119C C132U,≤ -4.2
17,A22G A26G A40G C76U G136U U144C,≤ -4.2
18,A22G G68A,≤ -4.2
19,A22C G48U U53A C87A,≤ -4.2
20,A22U A30G G46C G50C A52C U55G C72U U82A C87A G88C U90A C99U,≤ -4.2
21,A22C C51A G58C G68A G86C A110U A115G,≤ -4.2
22,A23C A37C A73U A89G A91C C108G,≤ -4.2
23,A22G G70U C87A U109G A138U C149A,≤ -4.2

# Source: the RNAGym collection of RNA variant scans (doi:10.1073/pnas.2313332121)
